Laboratory results: a compilation of properties of binary mixtures (doi:10.1021/acs.jced.5b00338)
The densities may have been worked out from excess volumes.

Assay: xn = mol fraction of the nth substance listed
Conditions: 100 kPa

O=C1OCCO1 + CC[n+]1ccn(C)c1.O=S(=O)([N-]S(=O)(=O)C(F)(F)F)C(F)(F)F
mass density [kg/m3]
Conditions	293.15 K	313.15 K	333.15 K	353.15 K
x1 = 0.1896	–	–	–	1453.6
x1 = 0.3305	1508	1482.8	1466.9	–
x1 = 0.4395	1495.1	1474.2	1453.5	–
x1 = 0.5263	1485.8	1464.6	1443.8	1423.2
x1 = 0.6557	–	1448.9	–	1403.7
x1 = 0.7476	1447.6	1425.9	1404.4	1383.1
x1 = 0.8163	–	1407	–	1363.6
x1 = 0.8696	1409.6	1387.3	–	1343.4
x1 = 0.912	–	1369.3	1346.9	1324.7
x1 = 0.9467	1376.5	1354.1	1331.6	–
x1 = 0.9756	1360.7	1337.9	1315.3	1292.7
x1 = 1	–	1321.9	1299.1	1276.3

CC[n+]1ccn(C)c1.O=S(=O)([N-]S(=O)(=O)C(F)(F)F)C(F)(F)F + O=C1OCCO1
x2 = 0
Conditions	mass density [kg/m3]
293.15 K	1524
313.15 K	1503.8
333.15 K	1483.8
353.15 K	1464.2
